T1: CD127 recombinant protein (Histidine tagged, Sino ref 10975-H08H) (UniProt P16871)
T1 sequence (looked up): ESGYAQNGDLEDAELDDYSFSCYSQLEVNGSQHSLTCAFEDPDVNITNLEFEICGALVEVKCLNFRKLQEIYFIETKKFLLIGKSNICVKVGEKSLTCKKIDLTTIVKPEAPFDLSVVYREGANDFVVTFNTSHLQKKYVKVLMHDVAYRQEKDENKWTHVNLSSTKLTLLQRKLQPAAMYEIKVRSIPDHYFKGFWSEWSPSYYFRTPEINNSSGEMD

T2: CD127 (Sinobiological, 10975-H03H-50) (UniProt P16871)
T2 sequence (looked up): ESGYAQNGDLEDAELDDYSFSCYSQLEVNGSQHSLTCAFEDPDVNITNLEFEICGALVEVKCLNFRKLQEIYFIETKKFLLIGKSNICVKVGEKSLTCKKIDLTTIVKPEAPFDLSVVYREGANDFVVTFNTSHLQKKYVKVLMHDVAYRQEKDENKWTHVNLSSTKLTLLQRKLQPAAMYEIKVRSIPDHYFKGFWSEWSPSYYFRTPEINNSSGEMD

T3: CD132 receptor (Sinobiological 10555-H08B) (UniProt P31785)
T3 sequence (looked up): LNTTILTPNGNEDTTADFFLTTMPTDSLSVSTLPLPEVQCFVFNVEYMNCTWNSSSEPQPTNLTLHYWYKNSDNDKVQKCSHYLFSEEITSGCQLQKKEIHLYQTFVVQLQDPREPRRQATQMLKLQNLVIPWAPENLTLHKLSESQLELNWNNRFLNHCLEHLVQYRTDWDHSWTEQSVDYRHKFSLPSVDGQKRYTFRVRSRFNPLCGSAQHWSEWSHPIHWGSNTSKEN


Key:
[1] = molecular target: IL-7 receptor (IL-7R) on human PBMCs / T cells (human) (UniProt P16871); assay: cell-based or functional assay
[2] = molecular target: T1, CD127 recombinant protein (Histidine tagged, Sino ref 10975-H08H); assay: CD127 binding sandwich ELISA: PD-1 coated, bifunctional molecule pre-incubated with His-tagged CD127, anti-His detection
[3] = molecular target: T2, CD127 (Sinobiological, 10975-H03H-50); assay: Biacore, CD127 immobilised on CM5 chip; two-state reaction model
[4] = molecular target: T3, CD132 receptor (Sinobiological 10555-H08B); assay: Biacore, CD132 injected over the complex CD127 + IgG fused IL-7 (30 nM); steady-state model
[5] = molecular target: recombinant human PD-1 (Example 2) (human) (UniProt Q15116); assay: competition ELISA: PD-L1 coated, antibody mixed with biotinylated PD-1 at 0.6 ug/mL, streptavidin peroxidase; blocked ligand PD-L1
UniProt Q15116, sequence (Q15116 25-167 limits assumed): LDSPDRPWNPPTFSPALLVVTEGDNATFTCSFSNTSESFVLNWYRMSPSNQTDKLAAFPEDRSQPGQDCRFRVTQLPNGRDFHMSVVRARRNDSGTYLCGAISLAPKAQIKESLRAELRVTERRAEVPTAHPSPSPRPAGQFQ

pSTAT5 signal in human PBMC T cells, EC50 [1] [ng/mL] | pSTAT5 signal in human PBMC T cells, EC50 (second experiment, other donor) [1] [ng/mL] | EC50 [2] [µg/mL] | Kd [3] [nM] | Kd2 [3] [s⁻¹] | kon [3] [M⁻¹ s⁻¹] | Kd [4] [nM] | IC50 (read off the curve) [5] [nM] | Binder
76 | 0.52 | 0.0184 | 0.0414 | 0.000122 | 5.76e+06 | 118 | – | IgG4 G4S3 IL7 WT (protein, from a related filing, part only) heavy: QIQLVQSGSELKKPGASVKVSCKASGYTFTHYAMNWVRQAPGQGLEWMGWINTNTGEPTYAQGFTGRFVFSLDTSVSTAYLQISSLKAEDTAVYYCAREREPGMDNWGQGTLVTVSSASTKGPSVFPLAPCSRSTSESTAALGCLVKDYFPEPVTVSWNSGALTSGVHTFPAVLQSSGLYSLSSVVTVPSSSLGTKTYTCNVDHKPSNTKVDKRV[here human IgG4 Fc with S228P L445P (EU numbers) without letters]GGGGSGGGGSGGGGSDCDIEGKDGKQYESVLMVSIDQLLDSMKEIGSNCLNNEFNFFKRHICDANKEGMFLFRAARKLRQFLKMNSTGDFDLHLLKVSEGTTILLNCTGQVKGRKPAALGEAQPTKSLEENKSLKEQKKLNDLCFLKRLLQEIKTCWNKILMGTKEH light: DVVMTQSPLSLPVTLGQPASISCRSSQSLVHANTNTYLEWYQQRPGQSPRLLIYKVSNRFSGVPDRFSGSGSGTDFTLKISRVEAEDVGVYYCFQGTHVPNTFGQGTKLEIKRTVAAPSVFIFPPSDEQLKSGTASVVCLLNNFYPREAKVQWKVDNALQSGNSQESVTEQDSKDSTYSLSSTLTLSKADYEKHKVYACEVTHQGLSSPVTKSFNRGEC
102 | – | 0.0349 | – | – | – | – | – | IgG4 G4S3 IL7 W142F (protein, part only; not given: anti-PD-1 variable domains and light chain, part only) heavy, part: ASTKGPSVFPLAPCSRSTSESTAALGCLVKDYFPEPVTVSWNSGALTSGVHTFPAVLQSSGLYSLSSVVTVPSSSLGTKTYTCNVDHKPSNTKVDKRV[here human IgG4 Fc with S228P L445P (EU numbers) without letters]GGGGSGGGGSGGGGSDCDIEGKDGKQYESVLMVSIDQLLDSMKEIGSNCLNNEFNFFKRHICDANKEGMFLFRAARKLRQFLKMNSTGDFDLHLLKVSEGTTILLNCTGQVKGRKPAALGEAQPTKSLEENKSLKEQKKLNDLCFLKRLLQEIKTCFNKILMGTKEH
– | – | – | – | – | – | – | 5 | anti-PD1VL-IL7, chimeric form (protein) heavy: QIQLVQSGPELKKPGETVKISCKASGYTFTHYGMNWVKQAPGKGLKWMGWINTNTGEPTYAEEFKGRFAFSLETSASAAFLQINNLKNEDTATYFCAKEREPGMDSWGQGTSVTVSSASTKGPSVFPLAPCSRSTSESTAALGCLVKDYFPEPVTVSWNSGALTSGVHTFPAVLQSSGLYSLSSVVTVPSSSLGTKTYTCNVDHKPSNTKVDKRV[here human IgG4 Fc with S228P L445P (EU numbers) without letters] light: DVLLTQTPLSLPVSLGDQASISCRSSQNIVHANGNTYLEWYLQKPGQSPKLLIYKVSNRFSGVPDRFSGSGSGTDFTLKITRVEAEDLGVYYCFQGSHVPNTFGGGTKLEIKRTVAAPSVFIFPPSDEQLKSGTASVVCLLNNFYPREAKVQWKVDNALQSGNSQESVTEQDSKDSTYSLSSTLTLSKADYEKHKVYACEVTHQGLSSPVTKSFNRGECGGGGSGGGGSGGGGSDCDIEGKDGKQYESVLMVSIDQLLDSMKEIGSNCLNNEFNFFKRHICDANKEGMFLFRAARKLRQFLKMNSTGDFDLHLLKVSEGTTILLNCTGQVKGRKPAALGEAQPTKSLEENKSLKEQKKLNDLCFLKRLLQEIKTCWNKILMGTKEH

Second part, the binder before the results:

Binder | pSTAT5 signal in human PBMC T cells, EC50 [1] [ng/mL] | pSTAT5 signal in human PBMC T cells, EC50 (second experiment, other donor) [1] [ng/mL] | EC50 [2] [µg/mL] | Kd [3] [nM] | Kd2 [3] [s⁻¹] | kon [3] [M⁻¹ s⁻¹] | Kd [4] [nM] | IC50 (read off the curve) [5] [nM]
IGG4 G4S3 IL7 SS3 (protein, from a related filing, part only) heavy: QIQLVQSGSELKKPGASVKVSCKASGYTFTHYAMNWVRQAPGQGLEWMGWINTNTGEPTYAQGFTGRFVFSLDTSVSTAYLQISSLKAEDTAVYYCAREREPGMDNWGQGTLVTVSSASTKGPSVFPLAPCSRSTSESTAALGCLVKDYFPEPVTVSWNSGALTSGVHTFPAVLQSSGLYSLSSVVTVPSSSLGTKTYTCNVDHKPSNTKVDKRV[here human IgG4 Fc with S228P L445P (EU numbers) without letters]GGGGSGGGGSGGGGSDCDIEGKDGKQYESVLMVSIDQLLDSMKEIGSNSLNNEFNFFKRHISDANKEGMFLFRAARKLRQFLKMNSTGDFDLHLLKVSEGTTILLNSTGQVKGRKPAALGEAQPTKSLEENKSLKEQKKLNDLSFLKRLLQEIKTCWNKILMGTKEH light: DVVMTQSPLSLPVTLGQPASISCRSSQSLVHANTNTYLEWYQQRPGQSPRLLIYKVSNRFSGVPDRFSGSGSGTDFTLKISRVEAEDVGVYYCFQGTHVPNTFGQGTKLEIKRTVAAPSVFIFPPSDEQLKSGTASVVCLLNNFYPREAKVQWKVDNALQSGNSQESVTEQDSKDSTYSLSSTLTLSKADYEKHKVYACEVTHQGLSSPVTKSFNRGEC | – | 4350 | – | – | 0.000602 | 1960 | – | –
IgG4 G4S3 IL7 SS2 (protein, from a related filing, part only) heavy: QIQLVQSGSELKKPGASVKVSCKASGYTFTHYAMNWVRQAPGQGLEWMGWINTNTGEPTYAQGFTGRFVFSLDTSVSTAYLQISSLKAEDTAVYYCAREREPGMDNWGQGTLVTVSSASTKGPSVFPLAPCSRSTSESTAALGCLVKDYFPEPVTVSWNSGALTSGVHTFPAVLQSSGLYSLSSVVTVPSSSLGTKTYTCNVDHKPSNTKVDKRV[here human IgG4 Fc with S228P L445P (EU numbers) without letters]GGGGSGGGGSGGGGSDSDIEGKDGKQYESVLMVSIDQLLDSMKEIGSNCLNNEFNFFKRHISDANKEGMFLFRAARKLRQFLKMNSTGDFDLHLLKVSEGTTILLNSTGQVKGRKPAALGEAQPTKSLEENKSLKEQKKLNDLCFLKRLLQEIKTSWNKILMGTKEH light: DVVMTQSPLSLPVTLGQPASISCRSSQSLVHANTNTYLEWYQQRPGQSPRLLIYKVSNRFSGVPDRFSGSGSGTDFTLKISRVEAEDVGVYYCFQGTHVPNTFGQGTKLEIKRTVAAPSVFIFPPSDEQLKSGTASVVCLLNNFYPREAKVQWKVDNALQSGNSQESVTEQDSKDSTYSLSSTLTLSKADYEKHKVYACEVTHQGLSSPVTKSFNRGEC | – | 2400 | – | 7.22 | 0.00155 | 611000 | 3100 | –
IGG4 G4S3 IL7 W142Y (protein, part only; not given: anti-PD-1 variable domains and light chain, part only) heavy, part: ASTKGPSVFPLAPCSRSTSESTAALGCLVKDYFPEPVTVSWNSGALTSGVHTFPAVLQSSGLYSLSSVVTVPSSSLGTKTYTCNVDHKPSNTKVDKRV[here human IgG4 Fc with S228P L445P (EU numbers) without letters]GGGGSGGGGSGGGGSDCDIEGKDGKQYESVLMVSIDQLLDSMKEIGSNCLNNEFNFFKRHICDANKEGMFLFRAARKLRQFLKMNSTGDFDLHLLKVSEGTTILLNCTGQVKGRKPAALGEAQPTKSLEENKSLKEQKKLNDLCFLKRLLQEIKTCYNKILMGTKEH | 208 | – | 0.0446 | – | – | – | – | –
